These are yes or no findings as the source states them, for the method shown. In cells and extracts the contact can be indirect. Some entries that bind do so weakly or less than the wild type. Tags and fused reporters may be left off the sequences shown.
T1: Flag-tagged WT-OGT (human O-GlcNAc transferase) (human) (UniProt O15294)
T1 sequence: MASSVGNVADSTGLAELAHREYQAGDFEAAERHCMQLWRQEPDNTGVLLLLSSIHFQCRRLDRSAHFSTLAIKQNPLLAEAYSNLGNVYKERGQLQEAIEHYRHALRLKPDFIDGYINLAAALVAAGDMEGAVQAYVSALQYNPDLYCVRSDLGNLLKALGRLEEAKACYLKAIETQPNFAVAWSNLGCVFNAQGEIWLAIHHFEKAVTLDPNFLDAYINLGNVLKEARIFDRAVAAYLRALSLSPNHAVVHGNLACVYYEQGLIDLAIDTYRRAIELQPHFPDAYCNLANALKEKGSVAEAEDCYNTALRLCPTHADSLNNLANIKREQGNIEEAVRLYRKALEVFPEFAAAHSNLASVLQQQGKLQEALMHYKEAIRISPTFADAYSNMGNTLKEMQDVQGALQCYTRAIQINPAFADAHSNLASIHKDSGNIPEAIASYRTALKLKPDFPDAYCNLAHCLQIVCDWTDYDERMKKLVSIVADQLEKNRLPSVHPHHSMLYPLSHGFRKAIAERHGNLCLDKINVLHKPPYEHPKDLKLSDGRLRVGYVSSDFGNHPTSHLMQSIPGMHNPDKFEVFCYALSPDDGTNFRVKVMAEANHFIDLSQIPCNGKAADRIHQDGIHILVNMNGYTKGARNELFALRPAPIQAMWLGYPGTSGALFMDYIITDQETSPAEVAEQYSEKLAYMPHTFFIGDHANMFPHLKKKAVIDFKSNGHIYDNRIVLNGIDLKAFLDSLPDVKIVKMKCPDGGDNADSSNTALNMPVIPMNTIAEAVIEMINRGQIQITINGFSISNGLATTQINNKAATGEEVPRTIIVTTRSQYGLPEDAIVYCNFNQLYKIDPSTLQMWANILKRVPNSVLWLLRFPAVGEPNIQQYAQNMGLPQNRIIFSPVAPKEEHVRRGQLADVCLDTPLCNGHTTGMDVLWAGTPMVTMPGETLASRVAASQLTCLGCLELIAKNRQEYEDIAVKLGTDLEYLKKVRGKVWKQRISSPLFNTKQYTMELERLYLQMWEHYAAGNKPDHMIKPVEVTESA

Amino acid sequences for entries named in this document (tags omitted).
UniProt P52294: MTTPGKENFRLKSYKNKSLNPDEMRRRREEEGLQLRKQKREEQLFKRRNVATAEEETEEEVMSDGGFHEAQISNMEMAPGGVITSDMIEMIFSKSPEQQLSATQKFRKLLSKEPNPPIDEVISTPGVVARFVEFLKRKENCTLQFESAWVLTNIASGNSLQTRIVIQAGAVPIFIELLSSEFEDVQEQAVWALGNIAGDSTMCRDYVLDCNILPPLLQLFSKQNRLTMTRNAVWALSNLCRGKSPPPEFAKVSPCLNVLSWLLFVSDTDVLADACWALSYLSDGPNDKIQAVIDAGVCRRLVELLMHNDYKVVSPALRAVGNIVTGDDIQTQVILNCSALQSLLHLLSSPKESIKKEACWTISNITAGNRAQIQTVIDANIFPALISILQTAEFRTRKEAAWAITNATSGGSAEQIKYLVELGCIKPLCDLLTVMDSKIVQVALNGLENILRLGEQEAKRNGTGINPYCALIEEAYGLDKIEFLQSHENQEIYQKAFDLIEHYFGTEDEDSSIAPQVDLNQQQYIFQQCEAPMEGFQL


Tests used:
[1] = target: T1, Flag-tagged WT-OGT (human O-GlcNAc transferase) (human); experiment: co-IP; HeLa cells transfected with Flag-tagged OGT; immunoprecipitated with anti-Flag antibody; bound endogenous importin α5 detected with an anti-importin α5 antibody
[2] = target: GST-importin α5 fusion protein (human) (UniProt P52294); experiment: pull-down; recombinant GST-importin α5 immobilised on Glutathione-Sepharose 4B (5 μg of beads) incubated with pre-cleared lysates of HeLa cells overexpressing Flag-tagged OGT constructs, 2 h at 4 °C; bound OGT detected with anti-Flag antibody; only the target purified
[3] = target: Myc-tagged importin α5 (human) (UniProt P52294); experiment: co-IP; HeLa cells co-transfected with Flag-tagged OGT constructs and Myc-tagged importin α or β; lysates immunoprecipitated with anti-Flag or with anti-Myc antibody, the partner detected by western blot; co-IP buffer 50 mM Tris-HCl pH 7.4, 150 mM NaCl, 0.5% NP-40, 4 °C; beads washed three times (stringently in Fig. 4a,b)

| binding [1] | binding [2] | binding [3] | Molecule |
| --- | --- | --- | --- |
| binds | – | – | endogenous importin α5 (from UniProt P52294 1-538) |
| – | no binding | – | Flag-tagged Mono-OGT Δ451–453 (enzyme, UniProt O15294-3 1-1036) MASSVGNVADSTGLAELAHREYQAGDFEAAERHCMQLWRQEPDNTGVLLLLSSIHFQCRRLDRSAHFSTLAIKQNPLLAEAYSNLGNVYKERGQLQEAIEHYRHALRLKPDFIDGYINLAAALVAAGDMEGAVQAYVSALQYNPDLYCVRSDLGNLLKALGRLEEAKACYLKAIETQPNFAVAWSNLGCVFNAQGEIELADHHFEKAVTLDPNFLDAYINLGNVLKEARIFDRAVAAYLRALSLSPNHAVVHGNLACVYYEQGLIDLAIDTYRRAIELQPHFPDAYCNLANALKEKGSVAEAEDCYNTALRLCPTHADSLNNLANIKREQGNIEEAVRLYRKALEVFPEFAAAHSNLASVLQQQGKLQEALMHYKEAIRISPTFADAYSNMGNTLKEMQDVQGALQCYTRAIQINPAFADAHSNLASIHKDSGNIPEAIASYRTALKLKPDAYCNLAHCLQIVCDWTDYDERMKKLVSIVADQLEKNRLPSVHPHHSMLYPLSHGFRKAIAERHGNLCLDKINVLHKPPYEHPKDLKLSDGRLRVGYVSSDFGNHPTSHLMQSIPGMHNPDKFEVFCYALSPDDGTNFRVKVMAEANHFIDLSQIPCNGKAADRIHQDGIHILVNMNGYTKGARNELFALRPAPIQAMWLGYPGTSGALFMDYIITDQETSPAEVAEQYSEKLAYMPHTFFIGDHANMFPHLKKKAVIDFKSNGHIYDNRIVLNGIDLKAFLDSLPDVKIVKMKCPDGGDNADSSNTALNMPVIPMNTIAEAVIEMINRGQIQITINGFSISNGLATTQINNKAATGEEVPRTIIVTTRSQYGLPEDAIVYCNFNQLYKIDPSTLQMWANILKRVPNSVLWLLRFPAVGEPNIQQYAQNMGLPQNRIIFSPVAPKEEHVRRGQLADVCLDTPLCNGHTTGMDVLWAGTPMVTMPGETLASRVAASQLTCLGCLELIAKNRQEYEDIAVKLGTDLEYLKKVRGKVWKQRISSPLFNTKQYTMELERLYLQMWEHYAAGNKPDHMIKPVEVTESA |
| – | binds | binds | Flag-tagged Mono-OGT (OGT-W198E, I201D) (enzyme, UniProt O15294-3 1-1036) MASSVGNVADSTGLAELAHREYQAGDFEAAERHCMQLWRQEPDNTGVLLLLSSIHFQCRRLDRSAHFSTLAIKQNPLLAEAYSNLGNVYKERGQLQEAIEHYRHALRLKPDFIDGYINLAAALVAAGDMEGAVQAYVSALQYNPDLYCVRSDLGNLLKALGRLEEAKACYLKAIETQPNFAVAWSNLGCVFNAQGEIELADHHFEKAVTLDPNFLDAYINLGNVLKEARIFDRAVAAYLRALSLSPNHAVVHGNLACVYYEQGLIDLAIDTYRRAIELQPHFPDAYCNLANALKEKGSVAEAEDCYNTALRLCPTHADSLNNLANIKREQGNIEEAVRLYRKALEVFPEFAAAHSNLASVLQQQGKLQEALMHYKEAIRISPTFADAYSNMGNTLKEMQDVQGALQCYTRAIQINPAFADAHSNLASIHKDSGNIPEAIASYRTALKLKPDFPDAYCNLAHCLQIVCDWTDYDERMKKLVSIVADQLEKNRLPSVHPHHSMLYPLSHGFRKAIAERHGNLCLDKINVLHKPPYEHPKDLKLSDGRLRVGYVSSDFGNHPTSHLMQSIPGMHNPDKFEVFCYALSPDDGTNFRVKVMAEANHFIDLSQIPCNGKAADRIHQDGIHILVNMNGYTKGARNELFALRPAPIQAMWLGYPGTSGALFMDYIITDQETSPAEVAEQYSEKLAYMPHTFFIGDHANMFPHLKKKAVIDFKSNGHIYDNRIVLNGIDLKAFLDSLPDVKIVKMKCPDGGDNADSSNTALNMPVIPMNTIAEAVIEMINRGQIQITINGFSISNGLATTQINNKAATGEEVPRTIIVTTRSQYGLPEDAIVYCNFNQLYKIDPSTLQMWANILKRVPNSVLWLLRFPAVGEPNIQQYAQNMGLPQNRIIFSPVAPKEEHVRRGQLADVCLDTPLCNGHTTGMDVLWAGTPMVTMPGETLASRVAASQLTCLGCLELIAKNRQEYEDIAVKLGTDLEYLKKVRGKVWKQRISSPLFNTKQYTMELERLYLQMWEHYAAGNKPDHMIKPVEVTESA |
| – | no binding | – | Flag-tagged Mono-OGT 451–453 AAA (enzyme, UniProt O15294-3 1-1036) MASSVGNVADSTGLAELAHREYQAGDFEAAERHCMQLWRQEPDNTGVLLLLSSIHFQCRRLDRSAHFSTLAIKQNPLLAEAYSNLGNVYKERGQLQEAIEHYRHALRLKPDFIDGYINLAAALVAAGDMEGAVQAYVSALQYNPDLYCVRSDLGNLLKALGRLEEAKACYLKAIETQPNFAVAWSNLGCVFNAQGEIELADHHFEKAVTLDPNFLDAYINLGNVLKEARIFDRAVAAYLRALSLSPNHAVVHGNLACVYYEQGLIDLAIDTYRRAIELQPHFPDAYCNLANALKEKGSVAEAEDCYNTALRLCPTHADSLNNLANIKREQGNIEEAVRLYRKALEVFPEFAAAHSNLASVLQQQGKLQEALMHYKEAIRISPTFADAYSNMGNTLKEMQDVQGALQCYTRAIQINPAFADAHSNLASIHKDSGNIPEAIASYRTALKLKPAAADAYCNLAHCLQIVCDWTDYDERMKKLVSIVADQLEKNRLPSVHPHHSMLYPLSHGFRKAIAERHGNLCLDKINVLHKPPYEHPKDLKLSDGRLRVGYVSSDFGNHPTSHLMQSIPGMHNPDKFEVFCYALSPDDGTNFRVKVMAEANHFIDLSQIPCNGKAADRIHQDGIHILVNMNGYTKGARNELFALRPAPIQAMWLGYPGTSGALFMDYIITDQETSPAEVAEQYSEKLAYMPHTFFIGDHANMFPHLKKKAVIDFKSNGHIYDNRIVLNGIDLKAFLDSLPDVKIVKMKCPDGGDNADSSNTALNMPVIPMNTIAEAVIEMINRGQIQITINGFSISNGLATTQINNKAATGEEVPRTIIVTTRSQYGLPEDAIVYCNFNQLYKIDPSTLQMWANILKRVPNSVLWLLRFPAVGEPNIQQYAQNMGLPQNRIIFSPVAPKEEHVRRGQLADVCLDTPLCNGHTTGMDVLWAGTPMVTMPGETLASRVAASQLTCLGCLELIAKNRQEYEDIAVKLGTDLEYLKKVRGKVWKQRISSPLFNTKQYTMELERLYLQMWEHYAAGNKPDHMIKPVEVTESA |
